B1: LINE1-mini (parent)
chain: GGCAGAGCUCAACACAGCGUGGCAAAGUGGCUGUGGCUAGACUGCC

The source gives no read counts; variants with many changes may rest on few reads.

The data set covers variants of B1. Nature of the data set: self-cleavage, relative activity (ratio to wild type); higher = more cleavage; in vitro, sequencing; the parent is a self-cleaving ribozyme.
With G1A G2U C37U, the self-cleavage came out at 0.02. As to G1A G22A U28G G30U G36A, the self-cleavage was found to be 0.19.

In the case of G1C C8A G19U G22C G35C, the self-cleavage was 0. The result for G1A A4U C18U C23G A26U U32C reads 0.01. Consider G1C A11G A24U C42A, for which the self-cleavage is 0. Turning to G1A C3G A4U G5C A14G G19A C31A, the self-cleavage is 0.35.

Consider G1C C10G G17C A25G, for which the self-cleavage turned out to be 0.

For G1A C10U C13U U28G, the self-cleavage is 0.08. As for G1A G27A G30U C45U, the self-cleavage was 0.13. On to G1A G2U A16G C18U A26G G36C A41C, for which the self-cleavage is 0.01.

G1C C8A G30U: the self-cleavage was found to be 0.06. For the variant G1A A6G A16U U28C, the self-cleavage worked out at 0.07. Take G1A G36U U38C: the self-cleavage came out at 0.12. For the variant G1A C10A C15U, the self-cleavage came to 0.12. On to G1A G2U C10A A11G C13U U32A, for which the self-cleavage was found to be 0.01. As for G1C C10A G22U, the self-cleavage was 0.

With G1C C10U U32C, the self-cleavage was 0.02. In the case of G1C A14C G33A, the self-cleavage turned out to be 0.02. Turning to G1A G7A G19C G22A G30A, the self-cleavage was found to be 0.12.

As for G1A G22C A24U G30U, the self-cleavage turned out to be 1.73. The result for G1C A12G G29C G33U C45G reads 0.03; that for G1A A6C U9G A24U G40U, 0.1; that for G1C A12U C31G G40A, 0.01. Regarding G1A A6C G7U, the self-cleavage is 0.2.

Regarding G1C C10A C13U, the self-cleavage came out at 0.03.

In the case of G1A G21C G36A, the self-cleavage came to 0.4. The result for G1A C18A C31G reads 0.04; that for G1A U34C G35A, 0.02; that for G1A G2U C31G A39U, 0.1. Regarding G1A C8U A25U U32A, the self-cleavage came to 0.28. G1A A12G G22U A24C A39C: the self-cleavage is 0.03. Turning to G1C C3A C10G U32C G44U, the self-cleavage came to 0.01.

Turning to G1A G5A A11C, the self-cleavage is 0.06. For the variant G1A A6U G40A C45A, the self-cleavage was determined as 0.22.

Turning to G1A G35U C37G, the self-cleavage is 0.04. The result for G1C A6U G17C reads 0.07; that for G1A G21U G40A C42G, 0.08; that for G1C A16U G17U C18G U43C, 0.03.

On to G1C A6C C45A, for which the self-cleavage is 0.1. As to G1C C3G A25U, the self-cleavage is 0.19. In the case of G1A G22C U34C, the self-cleavage came out at 0.09. Consider G1A C8A G17A G19C A26G, for which the self-cleavage came out at 0.31.

For the variant G1A G7C U34G C45G, the self-cleavage was 0.15. G1A G2A A4U C10U A14G: the self-cleavage was 0.28. The result for G1C C3A C15U G27A reads 0.61; that for G1A A11U A14U G21U U43C, 0.03; that for G1A C13A A25G G27C C37U, 0.01. Take G1A A39G C42U: the self-cleavage amounted to 0.06. Consider G1A C23U U38G, for which the self-cleavage was 0.01. As to G1A A14C G22C C42U, the self-cleavage was determined as 0.02. Regarding G1A G19U G33A C37G, the self-cleavage was found to be 0.05.

For G1A G17U U32G C46U, the self-cleavage was determined as 0.02. As to G1A A16C G36U, the self-cleavage stood at 0.06.

As to G1C A25C U43C, the self-cleavage came out at 0.03. The result for G1A U9C A16U reads 0.01. Consider G1A U9C G44C, for which the self-cleavage was 0.1. Regarding G1A G35C G40C, the self-cleavage is 0.05.

Take G1C C13A A14G U34A U43A C45U: the self-cleavage was 0.02.

For G1A A12U C13A C18A, the self-cleavage was found to be 0.06. Regarding G1A C8U G19A, the self-cleavage was found to be 0.15. For G1C A4U U9C C13U G19A A26U G29A C37G, the self-cleavage stood at 0.01.

Regarding G1C A4C U20C, the self-cleavage amounted to 0.06. In the case of G1A A6U C45G, the self-cleavage amounted to 1. Regarding G1A G17C G19A G29C, the self-cleavage was determined as 0.1. With G1A A16U U28A, the self-cleavage was 0.02. In the case of G1C A12U U38A G44A C45A, the self-cleavage stood at 0.03.

Take G1A C10U A11C A12C C42U: the self-cleavage stood at 0.01.

As to G1A C10U A26U, the self-cleavage came out at 0.08. Take G1A G7U U9A U34G A41G: the self-cleavage came out at 0.17.

Regarding G1C C10A G22A A25G G35U C46A, the self-cleavage is 0.

As to G1A U20C C23U, the self-cleavage came to 0.41.

On to G1C A4U C23A, for which the self-cleavage amounted to 0.03. The result for G1A A4G A14U reads 0.13. The result for G1A U28G C46A reads 1.38; that for G1A U9A G21C A25G G33A U38A, 0.06; that for G1A G21A G29A A41G, 0.09. Take G1C C8G A14U G19U C45G: the self-cleavage was determined as 0.01.

Consider G1C A4U C8G G33U, for which the self-cleavage amounted to 0.04. The same measure for G1A A14G U28A C45G: 0.04. For G1A A24G A41C, the self-cleavage stood at 0.15.

With G1A C3A U9G G29C G30A C31A C37A, the self-cleavage was 0.69. Regarding G1A G5A C37G C42G G44U, the self-cleavage amounted to 0.03. The result for G1A A24C C31U G35U reads 0.05; that for G1A C18G C46A, 0.28.

Consider G1A C8U A12C A25U C46U, for which the self-cleavage is 0.11. Turning to G1A C18G C31G G35C, the self-cleavage is 0.02. On to G1C A11G G30C U38G, for which the self-cleavage came to 0. Take G1A G5C G7U G30A G33A C37A: the self-cleavage amounted to 0.2. Turning to G1A A26G G35C, the self-cleavage turned out to be 0.09.

Consider G1A G7U C13U G17U A25U U28C G30A U38A A41U, for which the self-cleavage is 0.03. For the variant G1C A14C G17U U34G G36U U43A, the self-cleavage was 0.01. The same measure for G1A G5C U9G C23A G36U: 0.04.

In the case of G1A G5C C31U, the self-cleavage came out at 0.09.

On to G1A G2A C8G C31U, for which the self-cleavage is 0.03. G1C A16U G19C: the self-cleavage was found to be 0.04. On to G1A C3U C13G G22U A24C G36C C42U U43G, for which the self-cleavage was found to be 0.48. As to G1A A14U G35U, the self-cleavage was found to be 0.15. Turning to G1A G22C U32A A39G, the self-cleavage was determined as 0.09. G1A G2C C8G C37U: the self-cleavage stood at 0.02.

Turning to G1A A14C G36A, the self-cleavage amounted to 0.06.

As to G1A C15G G19C U32A G40A, the self-cleavage was found to be 0.03. For G1A C10G C31G, the self-cleavage amounted to 0.09.

Take G1A G21U C46A: the self-cleavage is 1.02. Take G1A A4G G21U: the self-cleavage was 0.14. On to G1C C3G G17A, for which the self-cleavage turned out to be 0.1. G1A A4U U9C U38C C42A: the self-cleavage stood at 0.02. In the case of G1C A11C C13G G27A U32G U34A G44U, the self-cleavage turned out to be 0.01. With G1A A25C U32C U38C G40A G44A, the self-cleavage was found to be 0. G1A U9A A12U A24U G44U: the self-cleavage amounted to 0.37. On to G1A G21U U38G, for which the self-cleavage was found to be 0.05. Regarding G1A A6U G7A, the self-cleavage came to 0.45. In the case of G1A A12U U34G, the self-cleavage is 0.18. Turning to G1A C31U G33C G36A G44U, the self-cleavage was determined as 0.02. Regarding G1C C10U G17U U28C, the self-cleavage amounted to 0.02. With G1C A26G G29U A39C, the self-cleavage amounted to 0.01.

For G1A G22C G30A G40U, the self-cleavage is 0.03.

For the variant G1C A14C C15A A16U, the self-cleavage was determined as 0.02. Consider G1C A14C G35U G44C, for which the self-cleavage was found to be 0.01. The result for G1A G7A C15G G33C reads 0.29. G1A G7U C31U: the self-cleavage stood at 0.13. Regarding G1A C3G U32A, the self-cleavage turned out to be 0.28.

Regarding G1A G7C U34G U38C, the self-cleavage worked out at 0.05. Turning to G1A C3A A26C U34A U43C C46U, the self-cleavage stood at 0.43.

Turning to G1A C10U U38G, the self-cleavage worked out at 0.11.

In the case of G1A G5C A11G C23A C46G, the self-cleavage was 0.01. Consider G1A A4C A16U A25C C31G, for which the self-cleavage came to 0.04.

With G1A G22A G30U, the self-cleavage was found to be 0.75. Consider G1C A12C G17U G21U G35U, for which the self-cleavage stood at 0.01.

G1A G5U C10U C42U: the self-cleavage was 0.07. With G1A G36A C37U A41G, the self-cleavage turned out to be 0.08. For the variant G1C C10U A26C C37A, the self-cleavage was found to be 0. In the case of G1A C8U C18A U38C, the self-cleavage is 0.41. As for G1A G2U G5A A11U C23A G27A U32G, the self-cleavage came to 0.01. As for G1A C15A C18G U28A, the self-cleavage came out at 0.1.

Regarding G1A A16U G17C G44A, the self-cleavage was found to be 0.28. The same measure for G1A C3G A12U C23A: 0.59; for G1A U9G G35U U38A: 0.07; for G1A A4G G30C C42U: 0.04. With G1A G7U A16C G22A U38C C42A U43A, the self-cleavage was found to be 0.08. With G1A A14G G27A, the self-cleavage was found to be 0.29.

G1A A12G C31A: the self-cleavage stood at 0.09.

Consider G1A G17A C31U A39C C42A, for which the self-cleavage was found to be 0.02.

On to G1A U20C A25U C31U A41U, for which the self-cleavage is 0.04.

Consider G1A A4G G21A U32A, for which the self-cleavage came out at 0.27. As for G1A C8A G27C G30U, the self-cleavage was found to be 0.3. The same measure for G1A G27C C46G: 1.71; for G1A A4C A14C U28A: 0.03; for G1C C10A A11C: 0. With G1A G5A A6G A12C C31G, the self-cleavage was 0.03.

As for G1C A14G C18U G21U U28C, the self-cleavage turned out to be 0.1. As to G1A G17U G21C A39U, the self-cleavage was determined as 0.1. For G1A A11C G17A, the self-cleavage amounted to 0.1. For the variant G1A A6U U38A C42A, the self-cleavage came to 0.11. Consider G1A U20A A24U G35A G44C, for which the self-cleavage stood at 0.04.

Turning to G1C C3G U20A G29C, the self-cleavage turned out to be 0.07. As for G1C C10A G19A A24U G35U A41G, the self-cleavage came out at 0.01. As to G1A A25C U28C, the self-cleavage was found to be 0.13. As to G1A G17C G36U, the self-cleavage worked out at 0.04. Turning to G1A C37U C42U, the self-cleavage worked out at 0.04. Take G1A G7C C15U G36U: the self-cleavage was determined as 0.72.

For G1A C3A G21A G35C, the self-cleavage worked out at 0.25. The same measure for G1A G36C C46A: 0.25; for G1C A24U G33C G35U G40U G44U: 0. On to G1C A6U A11U G22A U28C, for which the self-cleavage stood at 0.01. In the case of G1A A6U A11U C37U, the self-cleavage is 0.02.

On to G1A G5C G30C, for which the self-cleavage worked out at 0.14.

Consider G1C C3U A12G C37U C46U, for which the self-cleavage was 0.07.

Values taken from the RNAGym collection of RNA variant scans (doi:10.7554/elife.90254).
